Measured values: the supplement of paper PMC8728848
This is one part of the list.

Columns and labels:
Assay in all cases: glycan array binding signal (z-score within array); higher = stronger binding
Conditions in all cases: glycan notation: IUPAC condensed, linker removed
Gal6S(b1-4)Glc = molecular target: Gal6S(b1-4)Glc
In short: (§1)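 Columns mapping to the same glycan were averaged after glycan names were converted to IUPAC-condensed notation. The data come from 3228 arrays in the Consortium for Functional Glycomics database, limited to those with an available protein sequence. Binding is reported as a within-array Z-score averaged across arrays of one protein sequence and across linkers.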

Gal6S(b1-4)Glc6S = molecular target: Gal6S(b1-4)Glc6S
In short: as §1

Gal6S(b1-4)GlcNAc = molecular target: Gal6S(b1-4)GlcNAc
In short: as §1

Gal6S(b1-4)GlcNAc6S = molecular target: Gal6S(b1-4)GlcNAc6S
In short: as §1

GalNAc(a1-3)Gal = molecular target: GalNAc(a1-3)Gal
In short: as §1

GalNAc(a1-3)GalNAc = molecular target: GalNAc(a1-3)GalNAc
In short: as §1

[1] = molecular target: GalNAc(a1-3)GalNAc(b1-3)Gal(a1-4)Gal(b1-4)Glc
In short: as §1

[2] = molecular target: GalNAc(a1-3)GalNAc(b1-3)Gal(a1-4)Gal(b1-4)GlcNAc
In short: as §1

GalNAc(b1-3)Gal = molecular target: GalNAc(b1-3)Gal
In short: as §1

[3] = molecular target: GalNAc(b1-3)Gal(a1-4)Gal(b1-4)GlcNAc
In short: as §1

[4] = molecular target: GalNAc(b1-3)Gal(a1-4)Gal(b1-4)GlcNAc(b1-3)Gal(b1-4)Glc
In short: as §1

[5] = molecular target: GalNAc(b1-3)Gal(a1-6)Gal(b1-4)Glc
In short: as §1

GalNAc(b1-3)GalNAc = molecular target: GalNAc(b1-3)GalNAc
In short: as §1

GalNAc(b1-3)GlcNAc = molecular target: GalNAc(b1-3)GlcNAc
In short: as §1

GalNAc(b1-4)Gal(b1-4)Glc = molecular target: GalNAc(b1-4)Gal(b1-4)Glc
In short: as §1

GalNAc(b1-4)GlcNAc = molecular target: GalNAc(b1-4)GlcNAc
In short: as §1

[6] = molecular target: GalNAc(b1-4)GlcNAc(b1-2)Man
In short: as §1

[7] = molecular target: GalNAc(b1-4)GlcNAc(b1-2)Man(a1-3)[GalNAc(b1-4)GlcNAc(b1-2)Man(a1-6)]Man(b1-4)GlcNAc(b1-4)GlcNAc
In short: as §1

[8] = molecular target: GalNAc(b1-4)GlcNAc(b1-3)GalNAc(b1-4)GlcNAc
In short: as §1

GalNAc(b1-4)GlcNAc6S = molecular target: GalNAc(b1-4)GlcNAc6S
In short: as §1

GalNAc(b1-6)GalNAc = molecular target: GalNAc(b1-6)GalNAc
In short: as §1

GalNAc3S(b1-4)GlcNAc = molecular target: GalNAc3S(b1-4)GlcNAc
In short: as §1

GalNAc3S(b1-4)GlcNAc3S = molecular target: GalNAc3S(b1-4)GlcNAc3S
In short: as §1

[9] = molecular target: GalNAc3S(b1-4)[Fuc(a1-3)]GlcNAc
In short: as §1

GalNAc4S6S(b1-4)GlcNAc = molecular target: GalNAc4S6S(b1-4)GlcNAc
In short: as §1

GalNAc6S(b1-4)GlcNAc = molecular target: GalNAc6S(b1-4)GlcNAc
In short: as §1

Glc(a1-4)Glc = molecular target: Glc(a1-4)Glc
In short: as §1

[10] = molecular target: Glc(a1-4)Glc(a1-4)Glc(a1-4)Glc
In short: as §1

Glc(a1-6)Glc(a1-6)Glc = molecular target: Glc(a1-6)Glc(a1-6)Glc
In short: as §1

[11] = molecular target: Glc(a1-6)Glc(a1-6)Glc(a1-6)Glc
In short: as §1

Glc(b1-4)Glc = molecular target: Glc(b1-4)Glc
In short: as §1

Glc(b1-6)Glc = molecular target: Glc(b1-6)Glc
In short: as §1

GlcA(b1-3)Gal = molecular target: GlcA(b1-3)Gal
In short: as §1

GlcA(b1-3)GlcNAc = molecular target: GlcA(b1-3)GlcNAc
In short: as §1

GlcA(b1-6)Gal = molecular target: GlcA(b1-6)Gal
In short: as §1

[12] = molecular target: GlcA3S(b1-3)Gal(b1-4)GlcNAc(b1-2)Man
In short: as §1

[13] = molecular target: GlcA3S(b1-3)Gal(b1-4)GlcNAc(b1-3)Gal(b1-4)Glc
In short: as §1

[14] = molecular target: GlcNAc(a1-3)Gal(b1-4)GlcNAc
In short: as §1

[15] = molecular target: GlcNAc(a1-4)Gal(b1-3)GlcNAc
In short: as §1

[16] = molecular target: GlcNAc(a1-4)Gal(b1-4)GalNAc
In short: as §1

[17] = molecular target: GlcNAc(a1-4)Gal(b1-4)GlcNAc
In short: as §1

[18] = molecular target: GlcNAc(a1-4)Gal(b1-4)GlcNAc(b1-3)Gal(b1-4)Glc
In short: as §1

[19] = molecular target: GlcNAc(a1-4)Gal(b1-4)GlcNAc(b1-3)Gal(b1-4)GlcNAc
In short: as §1

[20] = molecular target: GlcNAc(a1-4)Gal(b1-4)GlcNAc(b1-3)Gal(b1-4)GlcNAc(b1-3)Gal(b1-4)GlcNAc
In short: as §1

[21] = molecular target: GlcNAc(a1-4)Gal(b1-4)GlcNAc(b1-3)Gal(b1-4)[Fuc(a1-3)]GlcNAc(b1-3)Gal(b1-4)[Fuc(a1-3)]GlcNAc
In short: as §1

B1: DrGal3 (Danio rerio) (protein)
chain: MDLSDALDAPPQQNNQQAGGPVWPGQPANPVWPGQPANPTWPGQPNQPAWPGQPNQQWPGQPGQPTAPGWPGPAPQTGPYGAPGQAPQVLTVPLDFPLQNGAYNKMLITINGEVKPNAKQFTVNLRRGNDIAFHINPRFSEGGKPVIVRNSMIGNNWGREERELPSFPFVPGKPFEMKILITDTEYKVAVNKSHLLEFKHRVFELNQITGLSIYNDVTLSTVNVETLQ
- glycan array binding signal (z-score) (Gal6S(b1-4)Glc): -0.239
- glycan array binding signal (z-score) (Gal6S(b1-4)Glc6S): -0.24
- glycan array binding signal (z-score) (Gal6S(b1-4)GlcNAc): -0.208
- glycan array binding signal (z-score) (Gal6S(b1-4)GlcNAc6S): -0.252
- glycan array binding signal (z-score) (GalNAc(a1-3)Gal): -0.25
- glycan array binding signal (z-score) (GalNAc(a1-3)GalNAc): -0.246
- glycan array binding signal (z-score) [1]: -0.259
- glycan array binding signal (z-score) [2]: -0.217
- glycan array binding signal (z-score) (GalNAc(b1-3)Gal): -0.225
- glycan array binding signal (z-score) [3]: 0.108
- glycan array binding signal (z-score) [4]: -0.174
- glycan array binding signal (z-score) [5]: -0.285
- glycan array binding signal (z-score) (GalNAc(b1-3)GalNAc): -0.257
- glycan array binding signal (z-score) (GalNAc(b1-3)GlcNAc): -0.265
- glycan array binding signal (z-score) (GalNAc(b1-4)Gal(b1-4)Glc): -0.253
- glycan array binding signal (z-score) (GalNAc(b1-4)GlcNAc): 0.313
- glycan array binding signal (z-score) [6]: -0.234
- glycan array binding signal (z-score) [7]: -0.239
- glycan array binding signal (z-score) [8]: -0.231
- glycan array binding signal (z-score) (GalNAc(b1-4)GlcNAc6S): -0.236
- glycan array binding signal (z-score) (GalNAc(b1-6)GalNAc): -0.246
- glycan array binding signal (z-score) (GalNAc3S(b1-4)GlcNAc): -0.263
- glycan array binding signal (z-score) (GalNAc3S(b1-4)GlcNAc3S): -0.255
- glycan array binding signal (z-score) [9]: -0.278
- glycan array binding signal (z-score) (GalNAc4S6S(b1-4)GlcNAc): -0.226
- glycan array binding signal (z-score) (GalNAc6S(b1-4)GlcNAc): -0.282
- glycan array binding signal (z-score) (Glc(a1-4)Glc): -0.262
- glycan array binding signal (z-score) [10]: -0.281
- glycan array binding signal (z-score) (Glc(a1-6)Glc(a1-6)Glc): -0.205
- glycan array binding signal (z-score) [11]: -0.264
- glycan array binding signal (z-score) (Glc(b1-4)Glc): -0.253
- glycan array binding signal (z-score) (Glc(b1-6)Glc): -0.225
- glycan array binding signal (z-score) (GlcA(b1-3)Gal): -0.244
- glycan array binding signal (z-score) (GlcA(b1-3)GlcNAc): -0.23
- glycan array binding signal (z-score) (GlcA(b1-6)Gal): -0.192
- glycan array binding signal (z-score) [12]: -0.207
- glycan array binding signal (z-score) [13]: -0.163
- glycan array binding signal (z-score) [14]: -0.23
- glycan array binding signal (z-score) [15]: -0.23
- glycan array binding signal (z-score) [16]: -0.206
- glycan array binding signal (z-score) [17]: -0.256
- glycan array binding signal (z-score) [18]: -0.13
- glycan array binding signal (z-score) [19]: 0.329
- glycan array binding signal (z-score) [20]: 1.14
- glycan array binding signal (z-score) [21]: -0.171
